Screen size: about 220,000 compounds; about 16,000 (7.3%) were called active. Inconclusive means that the source gave no clear call. Such entries were picked first, then a sample of the others. Calls follow the shape of the dose curve; as a rule, active = well fitted inhibition curve with a large enough effect (not every such curve was filed as active); inconclusive = small, poorly fitted or top-dose-only effect, or another doubt; inactive = no such curve, though single readings can be large or run the other way. Where the call is inconclusive, the potency comes from a doubtful curve fit.
Molecular target: Aldehyde dehydrogenase 1A1 (Homo sapiens) (UniProt P00352)
Sequence of UniProt P00352 (P00352 whole entry, looked up): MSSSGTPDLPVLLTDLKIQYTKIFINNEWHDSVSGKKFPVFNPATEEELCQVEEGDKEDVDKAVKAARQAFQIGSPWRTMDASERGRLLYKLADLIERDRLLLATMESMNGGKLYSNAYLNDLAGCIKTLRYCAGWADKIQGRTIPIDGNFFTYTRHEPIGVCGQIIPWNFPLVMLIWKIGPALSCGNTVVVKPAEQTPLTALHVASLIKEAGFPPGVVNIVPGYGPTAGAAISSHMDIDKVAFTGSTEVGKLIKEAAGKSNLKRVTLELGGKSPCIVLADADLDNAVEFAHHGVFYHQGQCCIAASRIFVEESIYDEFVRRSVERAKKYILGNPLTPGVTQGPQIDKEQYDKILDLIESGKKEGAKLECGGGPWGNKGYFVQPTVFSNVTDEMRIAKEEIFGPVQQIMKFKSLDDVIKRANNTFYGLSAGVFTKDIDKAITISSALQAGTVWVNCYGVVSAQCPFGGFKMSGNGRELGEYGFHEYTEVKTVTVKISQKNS
Test: qHTS Assay for Inhibitors of Aldehyde Dehydrogenase 1 (ALDH1A1);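 as to activity, negative = inhibition: plate controls were no enzyme wells and a reference inhibitor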
Details: Purified ALDH1A1, NADH fluorescence, propionaldehyde substrate; series mostly up to 75.3 µM; activity, negative = inhibition: at the top concentration
Potency is read from the fitted curve at half-maximal effect; tags tell the direction and shape of the fitted curve.

Potency, active:
COCCN=c1scc(-c2cccs2)n1/N=C/c1ccc(O)c(O)c1O 1.12 µM
O=C(c1ccco1)[C@@H]1[C@@H]2C(=O)N(c3ccccc3)C(=O)[C@@H]2C2c3ccccc3C=CN21 (stereo partly drawn) 2.24 µM
Cc1nonc1C1CCCN1Cc1cn[nH]c1-c1ccc2c(c1)OCO2 (stereo not drawn) 15.8 µM
Cc1ccc(N(CC(N)=O)C2SC(=O)N(Cc3cccc(C(=O)O)c3)C2=O)cc1 (stereo not drawn) 20 µM
O=C(Nc1nc(-c2ccccc2)cs1)C1c2ccccc2Oc2ccccc21 1.78 µM
Cc1cccc(C)c1OCC(=O)N/N=C/C=C/c1ccco1 12.6 µM
C=CC(=O)OCCOCCOC(=O)C=C 25.1 µM

Potency, inconclusive:
O=C(COc1ccc(S(=O)(=O)N2CCCC2)cc1)NCCC1=CCCCC1 39.8 µM [inhibitor, single point]
CC(C)Oc1cc2oc(=O)c3c(c2cc1Cl)CCC3 12.6 µM [inhibitor, partial curve, poor fit]
O=C(CSc1nc2ccccc2c(=O)n1Cc1ccco1)N1CCCCCC1 17.8 µM [inhibitor, partial curve]
CC(C)OC(=O)c1c(N)n(CCCN2CCOCC2)c2nc3ccccc3nc12 35.5 µM [inhibitor, partial curve]
CCNc1nc(NCC)n2c(SCC(=O)Nc3ccc(F)cc3[N+](=O)[O-])nnc2n1 35.5 µM [inhibitor, single point]
O=C(O)CCCn1cc(NC(=O)c2ccc(Br)o2)cn1 37.7 µM [inhibitor, single point]
Cc1csc(N(C)C(=O)CSc2nnc(COc3cccc4ccccc34)o2)n1 39.8 µM [inhibitor, single point]
Cc1ccc(-n2c(N)c(Br)c(=O)[nH]c2=O)cc1C 25.1 µM [inhibitor, single point]
COc1ccccc1CN1CCN(C(=O)c2ccncc2)CC1 44.7 µM [inhibitor, single point]
O=[N+]([O-])c1cc(S(=O)(=O)N2CCCC2)ccc1N/N=C/c1ccncc1 1.41 µM [inhibitor, partial curve]
CCc1ccc(N2C(=O)c3ccc4c5c(ccc(c35)C2=O)CC4)cc1 35.5 µM [inhibitor, single point]
Cc1ccc2cc(CN(Cc3ccco3)C(=O)c3ccccc3)c(=O)[nH]c2c1C 31.6 µM [inhibitor, single point]
Cc1ccc(OCC(=O)Nc2cc(S(=O)(=O)N3CCCCC3)ccc2C)c([N+](=O)[O-])n1 39.8 µM [inhibitor, single point]
COc1ccccc1CCNC(=O)CSc1ccc(-c2ccco2)nn1 0.891 µM [inhibitor, full curve]
CCC(=O)NC(=S)Nc1ccc(NC(=O)COc2ccc([N+](=O)[O-])cc2)cc1 39.8 µM [inhibitor, single point]
CC1=NN(c2ccccc2)C(=O)/C1=C/c1cc2cc(C)ccc2nc1N1CCCCC1 22.4 µM [inhibitor, partial curve, poor fit]
Cc1ccc(N2CC(C(=O)N3CCc4ccccc4C3)CC2=O)cc1 (stereo not drawn) 12.6 µM [inhibitor, partial curve]
Cc1cc(=O)[nH]c(=S)n1-c1ccccc1 37.7 µM [inhibitor, single point]
O=C(O)CCC(=O)Nc1ccc(C(=O)OCC(=O)c2ccc(Cl)cc2Cl)cc1 28.2 µM [inhibitor, single point]
CCOc1cc(N2CCOCC2)c(OCC)cc1NC(=O)CN1C(=O)NC(Cc2ccccc2)C1=O (stereo not drawn) 22.4 µM [inhibitor, single point]
CS(=O)(=O)Nc1ccc(S(=O)(=O)N2CCCC2)cc1 39.8 µM [inhibitor, single point]
COc1ccc(NC(=O)c2cc(-c3cccnc3)nc3c(C)c(C)ccc23)c(OC)c1 3.55 µM [inhibitor, full curve, poor fit]
CCCCn1c(SCC(=O)c2ccc(OC)c(OC)c2)nc2cc(S(N)(=O)=O)ccc21 35.5 µM [inhibitor, single point]
CCc1cccc2c(C(=O)COC(=O)c3ccc(O)cc3)c[nH]c12 14.1 µM [inhibitor, partial curve]
Cc1ccc(-n2c(C)cc(C(=O)COc3cccnc3[N+](=O)[O-])c2C)cc1 28.2 µM [inhibitor, single point]
CCc1ccc(N(C(=O)c2csnn2)C(C(=O)NC(C)(C)CC)c2cccnc2)cc1 (stereo not drawn) 17.8 µM [inhibitor, partial curve]
Cc1[nH]c2ccccc2c1CC(=O)O 22.4 µM [inhibitor, single point]
O=C(Nc1ccc2c(c1)CCC2)C1COc2ccccc2O1 (stereo not drawn) 39.8 µM [inhibitor, single point]
CNS(=O)(=O)c1ccc2nc(NC(=O)c3ccc(N4C(=O)CCC4=O)cc3)sc2c1 11.2 µM [inhibitor, partial curve]

activity, negative = inhibition, inactive:
Cc1ccccc1-n1c(Cn2c(=O)sc3ccccc32)nnc1SCC(=O)NCC1CCCO1 (stereo not drawn) -10.3%
O=C(Cc1cccs1)N1CCCC(c2nc3c(nnn3Cc3ccc(F)cc3)c(=O)[nH]2)C1 (stereo not drawn) 0.79%
O=C(CSc1ccccc1)Nc1ccc(C(=O)Nc2cccc(O)c2)cc1 -9.58%
CC(C)N(C(=O)CSc1nnc(NC(=O)C2CCC2)s1)C(C)C -3.25%
Cc1ccccc1C(=O)N1CCCN(C(=O)c2ccccc2C)CC1 7.08%
Cc1ccc2oc(/N=C(\N)NC(=O)C(C)(C)C)nc2c1 -0.14%
Cc1cc(NC(=O)CN2CCN(S(=O)(=O)c3ccc(Cl)cc3)CC2)no1 6.85%

Reference: PubChem BioAssay AID1030 (National Center for Advancing Translational Sciences (NCATS), 2008)
